The IC50 comes from the fitted curve, where viability falls to half of the control; where the fit passes the top or lowest dose, that dose stands as a limit. AUC is the area under the same curve over the 256-fold range up to the top dose, as a fraction; it is 1 without any effect and falls as sensitivity rises. For some assays here: An inferred top dose was derived from the fitted curves, not read from the paper. For some assays here: Where an entry number is given, a second screen of the drug exists; the two often differ.
Experiments:
Assay in all cases: Viability of human cancer cell lines after 72 h of drug (GDSC screen)
MP470 = compound: S=C(NCc1ccc2c(c1)OCO2)N1CCN(c2ncnc3c2oc2ccccc23)CC1 [MP470]; conditions: top dose 20 µM; top dose inferred
Protocol: (§1)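 Human cancer cell lines in 384-well plates, medium with 10% serum, drug for 72 h over a 256-fold dose range (nine 2-fold or five 4-fold steps up to the top dose). Adherent lines were fixed and stained with the nucleic acid dye Syto60, suspension lines read with resazurin; signal relative to control wells, capped at 0 and 100%. One two-parameter sigmoid per drug and line, fitted in a mixed model over all curves with the slope shared within a line.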

LFM-A13 = compound: C/C(O)=C(\C#N)C(=O)Nc1cc(Br)ccc1Br [LFM-A13]; conditions: top dose 16 µM; top dose inferred
Protocol: as §1

AUY922 = compound: CCNC(=O)c1noc(-c2cc(C(C)C)c(O)cc2O)c1-c1ccc(CN2CCOCC2)cc1 [AUY922]; conditions: top dose 0.256 µM; top dose inferred
Protocol: as §1

GNF-2 = compound: NC(=O)c1cccc(-c2cc(Nc3ccc(OC(F)(F)F)cc3)ncn2)c1 [GNF-2]; conditions: top dose 1.28 µM; top dose inferred
Protocol: as §1

Bicalutamide = compound: CC(O)(CS(=O)(=O)c1ccc(F)cc1)C(=O)Nc1ccc(C#N)c(C(F)(F)F)c1 [Bicalutamide]; conditions: top dose inferred
Protocol: as §1

Gemcitabine = compound: Nc1ccn([C@@H]2O[C@H](CO)[C@@H](O)C2(F)F)c(=O)n1 [Gemcitabine]; conditions: top dose 1.024 µM
Protocol: as §1

T0901317 = compound: O=S(=O)(c1ccccc1)N(CC(F)(F)F)c1ccc(C(O)(C(F)(F)F)C(F)(F)F)cc1 [T0901317]; conditions: top dose 10.24 µM; top dose inferred
Protocol: as §1

Nilotinib = compound: Cc1cn(-c2cc(NC(=O)c3ccc(C)c(Nc4nccc(-c5cccnc5)n4)c3)cc(C(F)(F)F)c2)cn1 [Nilotinib]; conditions: top dose 2 µM
Protocol: as §1

KIN001-270 = compound: Cc1ccc(Nc2cc(-c3cccc(N4C(=O)c5ccccc5C4=O)c3)ncn2)cc1NS(C)(=O)=O [KIN001-270]; conditions: top dose 20 µM; top dose inferred
Protocol: as §1

TW-37 = compound: CC(C)c1ccccc1Cc1cc(C(=O)Nc2ccc(S(=O)(=O)c3ccccc3C(C)(C)C)cc2)c(O)c(O)c1O [TW-37]; conditions: top dose 5 µM
Protocol: as §1

[1] = top dose 1.024 µM, screen: GDSC drug entry 150
[2] = top dose 10 µM, screen: GDSC drug entry 1502

| Cell Line | AUC (MP470) | IC50 (MP470) | AUC (LFM-A13) | IC50 (LFM-A13) | AUC (AUY922) | IC50 (AUY922) | AUC (GNF-2) | IC50 (GNF-2) | AUC (Bicalutamide; [1]) | IC50 (Bicalutamide; [1]) | AUC (Bicalutamide; [2]) | IC50 (Bicalutamide; [2]) | AUC (Gemcitabine) | IC50 (Gemcitabine) | AUC (T0901317) | IC50 (T0901317) | AUC (Nilotinib) | IC50 (Nilotinib) | AUC (KIN001-270) | IC50 (KIN001-270) | AUC (TW-37) | IC50 (TW-37) |
| --- | --- | --- | --- | --- | --- | --- | --- | --- | --- | --- | --- | --- | --- | --- | --- | --- | --- | --- | --- | --- | --- | --- |
| ALL-SIL (T-cell leukaemia, suspension) | 0.92 | > 20000 nM | 0.933 | > 16000 nM | 0.546 | 20.9 nM | 0.599 | 144 nM | 0.987 | > 1020 nM | 0.984 | > 10000 nM | 0.218 | 11.2 nM | 0.955 | > 10200 nM | 0.037 | < 7.81 nM | 0.927 | > 20000 nM | – | – |
| BT-474 (breast, adherent) | 0.809 | 12000 nM | 0.975 | > 16000 nM | – | – | 0.986 | > 1280 nM | 0.986 | > 1020 nM | 0.977 | > 10000 nM | – | – | 0.984 | > 10200 nM | 0.986 | > 2000 nM | 0.951 | > 20000 nM | 0.831 | 3710 nM |
| D-247MG (glioma, adherent) | 0.314 | 308 nM | – | – | – | – | 0.98 | > 1280 nM | – | – | 0.977 | > 10000 nM | – | – | 0.944 | > 10200 nM | 0.979 | > 2000 nM | 0.975 | > 20000 nM | 0.632 | 829 nM |
| D-336MG (glioma, adherent) | 0.954 | > 20000 nM | – | – | – | – | 0.906 | > 1280 nM | – | – | 0.975 | > 10000 nM | – | – | 0.947 | > 10200 nM | 0.98 | > 2000 nM | 0.962 | > 20000 nM | 0.663 | 1010 nM |
| DOHH-2 (B-cell lymphoma, suspension) | – | – | 0.978 | > 16000 nM | 0.601 | 30.1 nM | 0.986 | > 1280 nM | 0.984 | > 1020 nM | – | – | 0.463 | 51 nM | – | – | 0.986 | > 2000 nM | – | – | – | – |
| EHEB (lymphoid neoplasm, suspension) | – | – | 0.958 | > 16000 nM | 0.5 | 16.1 nM | 0.979 | > 1280 nM | 0.976 | > 1020 nM | 0.972 | > 10000 nM | 0.617 | 155 nM | – | – | 0.933 | > 2000 nM | – | – | 0.663 | 1100 nM |
| ES1 (Ewing sarcoma, adherent) | 0.91 | > 20000 nM | 0.976 | > 16000 nM | 0.436 | 10.7 nM | 0.983 | > 1280 nM | 0.986 | > 1020 nM | 0.968 | > 10000 nM | 0.031 | < 4 nM | – | – | 0.976 | > 2000 nM | 0.913 | > 20000 nM | 0.416 | 185 nM |
| GA-10 (Burkitt lymphoma, suspension) | – | – | – | – | – | – | 0.986 | > 1280 nM | – | – | 0.99 | > 10000 nM | – | – | – | – | 0.965 | > 2000 nM | – | – | 0.448 | 231 nM |

From the supplement of paper PMC4967469
